# Screen size: about 150,000 compounds; about 540 (0.36%) showed an effect of 50% or more. Some of the results follow.
# Tested on: Plasmodium falciparum
# Assay: Primary screen in NF54 nanoGlo assay, in single point, at 2uM, 72h; a lower Z score goes with more inhibition
# Format: functional, Erythrocyte
# Details: timepoint 72 hour
Compound,% Inhibition [%],Z score
Cc1c(Br)cccc1C(=O)Nc1ccc(N2C[C@@H](C)O[C@@H](C)C2)nc1,1,-0.07
COCCN(Cc1cccnc1)C(=O)c1nc(C(C)C)cs1,-10,1.57
O=C(c1ccc2c(c1)OCO2)N1CC[C@H](N2C(=O)COC2=O)C1,-4,0.7
COc1cc(OC)c(-c2nc3cc4[nH]c(=O)[nH]c4cc3[nH]2)cc1Cl,10,-1.27
Cc1cn(C)nc1C(=O)Nc1nnc(-c2ccco2)o1,-4,0.66
COc1ccc(Br)cc1NC(=O)NC(C)C(C)CO (centres undefined),32,-3.64
CON(C)C(=O)c1cccc(N(C)C)c1,4,-0.39
CCCCn1c(C)c(C)c(S(=O)(=O)c2ccccc2)c1N,-9,1.23
O=C(NC[C@H]1CN(S(=O)(=O)Cc2ccccc2)CC12CCOCC2)N1CCCC1,-7,0.89
O=C(N[C@H]1CCN(c2ccc(F)c(Cl)c2)C1=O)c1cnccn1,31,-3.52
C[C@@H](NC(=O)C1CCc2[nH]nnc2C1)c1ccc(C(F)(F)F)cc1 (some centres undefined),-15,1.39
COCc1cc(-c2cc(-c3c(C)n[nH]c3C)nc(N)c2C#N)ccc1OC,-4,0.81
CC(C)[C@H](Nc1cccc(F)c1C#N)C(N)=O,-14,1.17
CCc1ncc(C(=O)N(Cc2ccncc2)Cc2cccnc2)s1,-5,0.89
COc1ccc(CN[C@H](c2cccc3ccccc23)C(F)(F)F)nn1,-9,1.35
CS(=O)(=O)NC1CC(NS(=O)(=O)c2cccc3c2OC(F)(F)O3)C1 (centres undefined),3,-0.38
CC(C)C(=O)N[C@@H](Cc1c[nH]c2ccccc12)C(=O)N(C)Cc1nnc2n1CCCCC2,-3,0.4
COCC(=O)Nc1cc(C(=O)N[C@@H](C)c2c(C)nn(C)c2C)c2c(c1)ncn2Cc1ccc(F)cc1,-8,1.13
C[C@@H](C1CC1)N(C(=O)NCCc1cnn(-c2ccccc2)c1)C1CC1,2,-0.29
CNc1ncccc1C(=O)N1CCO[C@H](C(=O)N(C)C)C1,2,-0.19
CCCn1nnnc1CN(C)Cc1nnc(C2CC2)n1C,-10,1.28

Compound,% Inhibition [%],Z score
Cc1[nH]nc(-c2nc(-c3cn(C)c(=O)[nH]c3=O)no2)c1C(F)(F)F,-11,1.85
Cn1c(CN2CCOCC2)nnc1C1CCN(C(=O)c2ncccc2O)CC1,0,-0.04
O=C1C(N2C(=O)C3CCCN3C2=O)CCN1Cc1ccc(F)cc1 (centres undefined),-2,0.23
CCc1cc(CNC(=O)c2cccc(S(=O)(=O)N[C@H]3CCOC3)c2)on1,-3,0.57
CCN(CCO)C(=O)c1ccc(C(=O)OC)cc1,-14,1.41
O=C(CNc1cccc(C(F)(F)F)c1)Nc1ccccc1C(=O)NC1CC1,2,-0.37
CCc1cccc(OC2CN(Cc3cnn(CC)c3)C2)c1,-2,0.42
Cc1ccc(C(=O)N[C@H]2CC(=O)N(C)C2)cn1,-1,0.26
Cc1cccnc1C(=O)N1CC[C@H](c2sccc2C)[C@@H](O)C1,-2,0.3
CN1CCCC[C@@H]1CN1CC(Oc2ccccc2F)C1,-17,1.9
Cc1ccc(C(=O)N2CCN(C3CCCCC3)CC2)c(C2CCN(C(=O)c3c(F)cccc3F)CC2)n1,-17,2.38
Cc1ccsc1-c1noc([C@H]2CCc3nccn3C2)n1,-5,0.62
CC1CCCC(NC(=O)Nc2nnn(C)n2)C1 (centres undefined),0,0.09
Cc1cc([C@@H]2CCCN2C(=O)Nc2cccc(S(=O)(=O)C3CCCC3)c2)no1,3,-0.43
COc1cccc(C(=O)Nc2ccc3ncnc(N4CCCCC4)c3c2)c1,-19,1.81
Cc1ccc(S(=O)(=O)NCc2nc3cccnc3n2C)cc1,0,-0.06
O=c1[nH]cnc2c1CCN(S(=O)(=O)Cc1cc(Cl)cc(Cl)c1)C2,3,-0.53
CC(C)c1cnc2cc(C(=O)O)[nH]c2c1,-18,1.86
O=C(COc1ccc2nc3n(c(=O)c2c1)CCC3)Nc1ncc[nH]1,2,-0.33
CCCCn1nc(CC(N)=O)nc1CCc1ccc(C)cc1C,-10,1.56
O=C(Cn1ncccc1=O)N1Cc2ccccc2C1,8,-1.02

# Reference: ChEMBL document CHEMBL4888484, “Replenishing the malaria drug discovery pipeline: Screening and hit evaluation of the MMV Hit Generation Library 1 (HGL1) against asexual blood stage Plasmodium falciparum ,using a nano luciferase reporter read-out” (2022)
